# Experimental data as given in PubChem BioAssay AID652104 (National Center for Advancing Translational Sciences (NCATS), 2013).
# About 7,200 (1.8%) of roughly 410,000 compounds were called active. The inconclusive results got no clear call from the source; some entries with a clear call stand among them for comparison. Calls come from the whole dose curve; as a rule, active = well fitted activation curve with a large enough effect; inconclusive = small, poorly fitted or top-dose-only effect, or another doubt; inactive = no such curve, though single readings can be large or run the other way. No potency is given beside an inconclusive call; the fits are too rough.
# Assay: qHTS of TDP-43 Inhibitors; note: nearly all actives have a fitted effect of over 50% in size; for growth rescue (activation): % of control where 0% means no effect
# Details: TDP-43 expressing yeast growth rescue, BacTiter-Glo, 24 h; growth rescue (activation): at 46.1 µM (top of the series) unless noted
# Outline: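 In this qHTS, compounds that restore growth of yeast expressing TDP-43 appear as activators. Cells (OD600=0.02, galactose medium, raffinose-pregrown) are incubated with compound 24 hr at 30 deg C and growth is quantified by BacTiter-Glo.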
# Potency is the fitted concentration of half-maximal effect; tags give direction and shape of the fitted curve.
SMILES,Potency,growth rescue (activation)
Cc1cccc(NC(=O)CSc2nc3ccccc3o2)c1,"inconclusive [activator, partial curve]",
O=C(NCCc1ccc(F)cc1)c1cc(=O)c2ccccc2o1,active: 22.4 µM,
COc1ccc(NCc2ccc([N+](=O)[O-])s2)c(OC)c1,active: 10 µM,
CCN1CCN(c2ncnc3scc(-c4ccc(OC)cc4)c23)CC1,inactive,
C=C1CN(Cc2ccccc2)S(=O)(=O)c2ccccc21,"inconclusive [activator, partial curve]",
COc1ccc(CN2CC(=O)N3[C@H]4c5cc(C)ccc5OC[C@@H]4[C@H](c4ccccc4)[C@]3(C)C2=O)cc1,"inconclusive [activator, partial curve, poor fit]",
C/C(=N/NC(=O)c1ccc(Br)o1)c1cccc(NC(=O)c2ccc(F)cc2)c1,"inconclusive [activator, partial curve]",
CCOC(=O)c1cc(C)n(CC2CCC(C(=O)Nc3cc(OC)cc(OC)c3)CC2)c1C (centres undefined),inactive,
O=C(Cc1ccccc1)Nc1cc([N+](=O)[O-])ccc1N1CCOCC1,"inconclusive [activator, partial curve]",
CCc1ccccc1N1C(=O)N(CC(=O)c2ccc(OC)cc2)c2ccccc2S1(=O)=O,"inconclusive [activator, full curve, poor fit]",
CCCCOCCCn1cnc2c([nH]c3cc(OC)ccc32)c1=O,"inconclusive [activator, partial curve]",
Cc1ccc(N2C(S)=C(C#N)C(=O)NC23CCCCC3)cc1,active: 22.4 µM,
COC(=O)c1cccc(S(=O)(=O)N2CCC(C)CC2)c1,"inconclusive [activator, full curve, poor fit]",
N#CCCN(C(=O)Cn1nc(C(=O)O)c2ccccc2c1=O)c1ccccc1,inactive,
COc1ccc(CSc2nnnn2Cc2ccccc2)cc1OC,"inconclusive [activator, partial curve]",
c1ccc(-c2nn(-c3ccccc3)[n+](-c3ccccc3)n2)cc1,inactive,
CCOC(=O)/C(C#N)=C/c1ccc(-c2ccc(C)cc2)o1,"inconclusive [activator, single point]",
Cc1nn(-c2ccc(F)cc2F)c2c1-c1nc(N3CCCC3)ncc1CC2,"inconclusive [activator, single point]",
COC(=O)CC1Oc2ccc(C)cc2-n2cc(-c3ccc(C)cc3)nc21 (centres undefined),"inconclusive [activator, single point]",
COC(=O)c1ccccc1NC(=O)C1=C(C)C(=O)OC12CCC(C)CC2 (centres undefined),"inconclusive [activator, full curve, poor fit]",
COc1cccc(C#CC2=CC(=O)CC(C)(C)C2)c1,"inconclusive [activator, partial curve]",
COc1ccc(C(=O)C2CCN(C(=O)c3ccc(F)cc3)CC2)cc1,"inconclusive [activator, single point]",
COc1cccc(C(NC(C)=O)c2nc(-c3cccc(C(C)C)c3)cs2)c1 (centres undefined),"inconclusive [activator, partial curve]",

SMILES,Potency,growth rescue (activation)
CC(NC(=S)Nc1c(Cl)cccc1OC(F)F)C(C)(C)C (centres undefined),"inconclusive [activator, single point]",
COc1cccc(C(=O)/C=C/Nc2ccc(NC(C)=O)cc2)c1,"inconclusive [activator, single point]",
O=C(NC(=S)Nc1ccccn1)c1ccc([N+](=O)[O-])cc1,"inconclusive [activator, partial curve]",
CCCn1c(NC(=O)c2ccccc2)nc2ccccc21,"inconclusive [activator, single point]",
CCOC(=O)c1c(C)[nH]c(C=C2C(=O)CCCC2=O)c1O,"inconclusive [activator, single point]",
C[C@@H]1CC=C[C@H]2[C@H]1C(=O)N(Cc1ccccc1)[C@H]2c1ccc2ccccc2c1Br,"inconclusive [activator, partial curve]",
O=C(COc1ccc(F)cc1Br)Nc1ccccc1N1CCOCC1,"inconclusive [activator, single point]",
O=C(Cc1cccs1)N[C@@H]1c2ccccc2CC[C@@H]1OCc1ccccc1,"inconclusive [activator, single point]",
CCC(C)Nc1nc(N)c([N+](=O)[O-])c(Nc2cc(OC)ccc2OC)n1 (centres undefined),"inconclusive [activator, single point]",
Cc1ccc(C2C=C(c3ccccc3)Nc3ncnn32)cc1 (centres undefined),"inconclusive [activator, single point]",
CC(C)c1onc(C(=O)Nc2ccc3c(c2)OCO3)c1[N+](=O)[O-],"inconclusive [activator, single point]",
Cc1cccc2c1c1ccc3c(c1n2C)C(=O)C=CC3=O,,inconclusive: -48.1% [activator]
CCc1ccc(NC(=O)c2noc(C(C)C)c2[N+](=O)[O-])cc1,active: 11.2 µM,
O=C(/C=C/c1ccc2c(c1)OCO2)c1ccc(O)cc1O,active: 8.91 µM,
O=C(/C=C/c1cccc(OCc2ccccc2)c1)c1cccnc1,"inconclusive [activator, partial curve]",
Cc1oc(-c2ccc(Cl)cc2)nc1CN1CCCC(C(=O)NCCc2ccc(Cl)cc2)C1 (centres undefined),inactive,
Cc1ccc(CNC(=O)COc2cc(O)c3c(c2)OC(C)(C)CC3=O)cc1,active: 12.6 µM,
COc1ccccc1-c1nc2n(n1)C(c1ccccc1Cl)C(C(=O)Nc1cccnc1)=C(C)N2 (centres undefined),"inconclusive [activator, single point]",
CCCCCC(=O)NNC(=S)NC(=O)c1ccccc1[N+](=O)[O-],"inconclusive [activator, partial curve]",
CC(=O)N1c2ccccc2C(=O)C1N1CCN(c2ccccc2F)CC1 (centres undefined),active: 35.5 µM,
CCC(C(=O)Nc1cccc(Cl)c1C)n1nc(C)c2sc3ccccc3c2c1=O (centres undefined),"inconclusive [activator, full curve, poor fit]",
Cc1ccc(-c2nc(CCNC(=O)c3ccc(C)c(C)c3)cs2)cc1,"inconclusive [activator, partial curve]",
COc1ccc2oc(C(=O)NCCC(C)C)c(C)c2c1,inactive,

SMILES,Potency,growth rescue (activation)
CSc1nc2sc3c(c2c(=S)[nH]1)CC(C)(C)OC3,"inconclusive [activator, partial curve]",
CN(C(=O)c1c(Cl)cnn1C)C12CC3CC(CC(C3)C1)C2,"inconclusive [activator, single point]",
COc1ccc(/C=N/Nc2cc(C)nc(-n3nc(C)cc3C)n2)cc1,active: 20 µM,
O=C(NCCc1ccccc1)c1cnn2c(C(F)F)cc(C3CC3)nc12,"inconclusive [activator, single point]",
Cc1cccc(N2CC(C(=O)Nc3nnc(SCC(=O)N4CCOCC4)s3)CC2=O)c1 (centres undefined),inactive,
COc1ccc(S(=O)(=O)NCC(c2cccs2)S(=O)(=O)c2ccccc2)cc1OC (centres undefined),active: 3.16 µM,
COCCn1c(=S)[nH]c2sc3c(c2c1=O)CCCC3,"inconclusive [activator, single point]",
O=C(CSc1nnc(-c2ccccc2Cl)o1)N1CCCc2ccccc21,"inconclusive [activator, partial curve]",
O=C(O)CCC(=O)Nc1ccc(Br)cc1C(=O)c1ccccc1Cl,"inconclusive [activator, single point]",
CC(=O)/C(=N\Nc1ccccc1)Oc1ccc(Br)cc1,"inconclusive [activator, single point]",
COc1cc(C)cc(C(=O)O)c1C1=C(O)c2cccc(O)c2C(=O)C1=O,"inconclusive [activator, partial curve]",
CCN1CCc2c(sc(N)c2C#N)C1,inactive,
Cc1nnc2c(N3CCN(C(=O)c4ccco4)CC3)nc3ccccc3n12,"inconclusive [activator, single point]",
Cc1cccc2cc(CN(Cc3nnnn3C3CCCCC3)C3CCCC3)c3nnnn3c12,"inconclusive [activator, single point]",
CCC1CCC2(CC1)SCC(=O)N2c1ccccc1 (centres undefined),"inconclusive [activator, single point]",
CCOC(=O)C(NCCc1ccccc1)(NC(=O)CC)C(F)(F)F (centres undefined),"inconclusive [activator, full curve]",
Cn1nc(-c2ccccc2)c(C(=O)Nc2ccc(Cl)cc2)c1Cl,active: 3.16 µM,
COc1ccc(C(O)c2nc(-c3cccc(C(C)C)c3)cs2)cc1 (centres undefined),active: 35.5 µM,
Cc1nn(C)cc1/C=C/C(=O)c1cccs1,"inconclusive [activator, full curve, poor fit]",
O=C(c1ccccc1)C1CC1c1ccccc1 (centres undefined),,inconclusive: -84% [activator]
Cc1ccc(CN2CCC(CNC(=O)c3cnn(-c4ccccc4Cl)c3C3CCN(C(=O)OC(C)(C)C)CC3)CC2)cc1,inactive,
O=C(CSc1nnc2n1CCCN2)c1ccc([N+](=O)[O-])cc1,inactive,
CC(NC(=O)c1ccccc1N)c1ccccc1 (centres undefined),"inconclusive [activator, partial curve, poor fit]",
